Source: PubChem BioAssay AID504832 (National Center for Advancing Translational Sciences (NCATS), 2011)
In all, about 310,000 compounds went through this assay and about 18,000 (5.8%) were called active. This list was built around the results that the source calls inconclusive (neither active nor inactive); the mix of calls is not that of the screen. The call rests on the fitted dose curve; in most records, active means well fitted inhibition curve with a large enough effect; inconclusive means small, poorly fitted or top-dose-only effect, or another doubt; inactive means no such curve, though single readings can be large or run the other way. Potencies of inconclusive entries are left out as doubtful fits.

Assay: Primary qHTS for delayed death inhibitors of the malarial parasite plastid, 48 hour incubation
Conditions: P. falciparum luciferase growth in erythrocytes; series mostly up to 28.7 µM
Method in brief: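 Firefly luciferase activity from engineered P. falciparum reports growth; inhibitors lower the luminescent signal. Cultures contained 2% hematocrit erythrocytes at 0.1% final parasitemia.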
Potency means the concentration at half of the fitted maximal effect; tags describe the fitted curve by direction and shape.

| Compound | Potency |
| --- | --- |
| Cc1ccc(CN2CC(C(=O)NNC(=O)c3ccc(F)cc3)CC2=O)cc1 (stereo not drawn) | inactive |
| COc1ccccc1C(=O)N1CCC(N2CCN(c3ccccc3)CC2)CC1 | inconclusive [inhibitor, partial curve, poor fit] |
| O=C(O)C1CCN(c2ccccc2[N+](=O)[O-])CC1 | inactive |
| Cc1ccccc1-n1nnnc1Sc1nnnn1-c1ccccc1 | active: 8.28 µM |
| COC(=O)C1=C(c2ccc(OC(F)(F)F)cc2)C[C@@H]2CC[C@H]1N2C(=O)NCC1CC1 | inconclusive [inhibitor, partial curve] |
| Fc1ccccc1CNc1ccc(Cl)cc1 | inconclusive [inhibitor, single point] |
| Cc1cccc(S(=O)(=O)Nc2ccc(C)c3c2OC(C)(C)C3)c1 | inconclusive [inhibitor, single point] |
| O=C(NCCC(=O)N1CCCCC1)c1ccccc1Cl | inactive |
| O=C(CN1CCN(C(=O)COc2cccc(F)c2)CC1)Nc1ccc(Cl)c(C(F)(F)F)c1 | inconclusive [inhibitor, single point] |
| C#CCOCCOCCOCCNc1nc(N2CCN(C(=O)C(Cc3cc4ccccc4[nH]3)n3cc(C(N)C(C)CC)nn3)CC2)nc(N2CCN(C(=O)C(Cc3cc4ccccc4[nH]3)n3cc(C(N)C(C)CC)nn3)CC2)n1 (stereo not drawn) | inconclusive [inhibitor, full curve, poor fit] |
| COc1ccc(CNS(=O)(=O)c2ccc(NC(=O)N3CCCCC3)cc2)cc1 | inactive |
| NNC(=O)c1nn(-c2ccc(Cl)cc2)cc1O | active: 9.28 µM |
| O=C(NC(=S)Nc1ccc(Br)cc1)C1CCCCC1 | inconclusive [inhibitor, single point] |
| Cc1ccc(C(=O)N/N=C\c2ccc3c(c2)OCO3)cn1 | inactive |
| CCCCN(C(=O)c1ccc(NC2CC2)c([N+](=O)[O-])c1)c1c(N)n(CCCC)c(=O)[nH]c1=O | inconclusive [inhibitor, single point] |
| COc1ccc(C(=O)N2CCN(Cc3cc(OC)ccc3OC)CC2)cc1 | inconclusive [inhibitor, single point] |
| O=C(Nc1ccc(CN2CCOCC2)cc1)c1ccc(-c2cccc(Cl)c2)o1 | active: 1.47 µM |
| CN1/C(=C\C(=O)COc2ccc3c(c2)OCO3)C(C)(C)c2ccccc21 | inconclusive [inhibitor, partial curve] |
| O=C(/C=C/c1ccccc1[N+](=O)[O-])c1ccc(F)cc1 | inconclusive [inhibitor, partial curve, poor fit] |
| Cc1cccc(C(=O)N2N=C(c3ccc(NS(C)(=O)=O)cc3)CC2c2cccs2)c1 (stereo not drawn) | active: 8.28 µM |
| Cc1cc(NC(=O)C(C)SCC(=O)Nc2ccccc2C(C)(C)C)no1 (stereo not drawn) | active: 13.1 µM |
| CC(C)NC(=O)NC(=O)COC(=O)c1ccc([N+](=O)[O-])cc1Cl | inconclusive [inhibitor, single point] |

| Compound | Potency |
| --- | --- |
| CC1(C)Cc2noc(N)c2C(C)(C)N1OC(=O)c1ccccc1 | inconclusive [inhibitor, single point] |
| Cc1cccc(NC(=O)CCCCCN2C(=O)[C@@H]3Cc4ccccc4CN3C2=O)c1 | inconclusive [inhibitor, single point] |
| COc1ccccc1N(Cc1ccccc1)S(=O)(=O)c1cccc(C(=O)Nc2ccc(C(C)=O)cc2)c1 | inconclusive [inhibitor, partial curve, poor fit] |
| O=C(NCC1CCN(Cc2ccc(F)cc2)CC1)Nc1cc(F)ccc1F | inconclusive [inhibitor, single point] |
| COc1ccc(Nc2ccccc2N)cc1 | inconclusive [inhibitor, single point] |
| N#Cc1c(-c2ccccc2F)cc(C2CC2)nc1SCC(=O)c1cccs1 | inconclusive [inhibitor, single point] |
| O=C1COc2ccc(C(=O)COC(=O)/C=C/c3ccco3)cc2N1 | inconclusive [inhibitor, single point] |
| N=c1ccn(Cc2cccc(F)c2)cc1 | active: 2.33 µM |
| COc1ccccc1Nc1nc(C)nc2c1oc1ccccc12 | inactive |
| O=c1cc2oc3cc(O)c(O)cc3c(-c3ccccc3[N+](=O)[O-])c-2cc1O | inconclusive [inhibitor, partial curve, poor fit] |
| CCN(CC)c1ccc(NC(=O)CN2C(=O)CC(C)(C)S(=O)(=O)c3ccccc32)c(C)c1 | inconclusive [inhibitor, partial curve, poor fit] |
| COc1cc(C(=O)Nc2ccc(N(C)C)cc2)cc(OC)c1OC | inactive |
| CC(=O)C12CCCCC1CC1C3CC(C)C4(O)CC(=O)CCC4(C)C3CCC12C (stereo not drawn) | inactive |
| CCCC(=O)N(CCN1CCOCC1)c1nc2c(OC)ccc(OC)c2s1 | inactive |
| COc1ccc(/C=C\C(=O)c2c(O)ccc3c(C)cc(=O)oc23)cc1OC | active: 9.28 µM |
| Cc1cccc(/C=C2/SC(=O)N(Cc3ccccc3Cl)C2=O)n1 | inconclusive [inhibitor, single point] |
| CCOc1cc(CNCCc2c[nH]c3ccccc23)cc(Cl)c1OCC(N)=O | inconclusive [inhibitor, partial curve, poor fit] |
| O=C(CN1CCCN(Cc2ccc(F)cc2Cl)C1=O)NC1CCCCCCC1 | inconclusive [inhibitor, partial curve, poor fit] |
| CN1CCN(c2ccc(NC(=O)c3ccc4c(c3)[nH]c(=O)n4Cc3ccc(F)cc3)cc2)CC1 | active: 11.7 µM |
| COc1ccc(-c2nn(-c3ccccc3)cc2/C=N/Nc2ccc(Cl)c(C(=O)O)c2)cc1OC | inconclusive [inhibitor, partial curve, poor fit] |
| COc1cc(/C=C(\C#N)C(=O)Nc2ccccc2)ccc1OCCN1CCOCC1 | inactive |
